The other results are listed elsewhere or left out. Many values rest on one well or one pass, so single values are uncertain.
tested on: RPMI7951; test: cell count relative to DMSO control; melanoma cells; higher = more viable cells; conditions: library dose: low library concentration; 72 h
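Note: cell number obtained by counting DAPI-stained nuclei in high-throughput microscope images with image analysis software, screen run in 1,536-well plates.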

**Q.** Which cell count does the source give for COc1cc([C@@H]2c3cc4c(cc3[C@@H](O[C@@H]3O[C@@H]5CO[C@@H](C)O[C@H]5[C@H](O)[C@H]3O)[C@H]3COC(=O)[C@H]23)OCO4)cc(OC)c1O [etoposide] + CN(NC(=O)CC(=O)NN(C)C(=S)c1ccccc1)C(=S)c1ccccc1 [STA4783] (first compound 0.02 µM, partner dose 0.006 µM) here?
**A.** 106%

**Q.** For C[C@]1(O)C[C@@H](c2nc(-c3ccc4ccc(-c5ccccc5)nc4c3)c3c(N)nccn32)C1 + Cc1cc([N+](=O)[O-])ccc1NS(=O)(=O)c1cc(Cl)ccc1Cl [FH535] (first compound 0.4 µM, partner dose 1 µM), which cell count is on record?
**A.** 93.6%

**Q.** CCN(CC)CCNC(=O)c1c(C)[nH]c(/C=C2\C(=O)Nc3ccc(F)cc32)c1C [sunitinib] + COC(=O)c1sccc1S(=O)(=O)Nc1ccc(Nc2ccccc2)cc1OC [GSK0660] (first compound 0.4 µM, partner dose 1 µM) was tested. Which cell count did it give?
**A.** 94.4%

**Q.** Cn1cnc2c(F)c(Nc3ccc(Br)cc3Cl)c(C(=O)NOCCO)cc21 [selumetinib] + COc1cc2c(Oc3ccc4[nH]c(C)cc4c3F)ncnc2cc1OCCCN1CCCC1 [cediranib] (first compound 0.015 µM, partner dose 0.4 µM) was tested. Which cell count did it give?
**A.** 103%

**Q.** For Cn1cnc2c(F)c(Nc3ccc(Br)cc3Cl)c(C(=O)NOCCO)cc21 [selumetinib] + COc1cc2ncnc(Nc3ccc(Oc4ccccc4)cc3)c2cc1OC [SrcI1] (first compound 0.015 µM, partner dose 2 µM), which cell count is on record?
**A.** 102%

**Q.** Cn1cnc2c(F)c(Nc3ccc(Br)cc3Cl)c(C(=O)NOCCO)cc21 [selumetinib] + NC(=O)Nc1cc(-c2cccc(F)c2)sc1C(=O)N[C@H]1CCCNC1 [AZD7762] (first compound 0.015 µM, partner dose 0.02 µM) was tested. Which cell count did it give?
**A.** 123%

**Q.** Which cell count does the source give for COc1cc([C@@H]2c3cc4c(cc3[C@@H](O[C@@H]3O[C@@H]5CO[C@@H](C)O[C@H]5[C@H](O)[C@H]3O)[C@H]3COC(=O)[C@H]23)OCO4)cc(OC)c1O [etoposide] + Cn1cncc1[C@@](N)(c1ccc(Cl)cc1)c1ccc2c(c1)c(-c1cccc(Cl)c1)cc(=O)n2C [tipifarnib] (first compound 0.02 µM, partner dose 0.01 µM) here?
**A.** 104%

**Q.** Which cell count does the source give for CCN(CC)CCNC(=O)c1c(C)[nH]c(/C=C2\C(=O)Nc3ccc(F)cc32)c1C [sunitinib] + O=C(CCCCCCC(=O)Nc1ccccc1)NO [vorinostat] (first compound 0.4 µM, partner dose 0.08 µM) here?
**A.** 121%

**Q.** With COc1cc([C@@H]2c3cc4c(cc3[C@@H](O[C@@H]3O[C@@H]5CO[C@@H](C)O[C@H]5[C@H](O)[C@H]3O)[C@H]3COC(=O)[C@H]23)OCO4)cc(OC)c1O [etoposide] + Cc1cc([N+](=O)[O-])ccc1NS(=O)(=O)c1cc(Cl)ccc1Cl [FH535] (first compound 0.02 µM, partner dose 1 µM) as the compound, how does the cell count read?
**A.** 89.3%

Source: the supplement of paper PMC4604168 (melanoma cell lines)
